Test results: the supplement of paper PMC3334620
Over roughly 33,000 sequences, “E-score (-0.5 to 0.5)” has its median near -0.04; the highest 2% begin near 0.36. The list shows a part of the results.

What follows are sequences tested against T1, Hmlalpha2 (UniProt P0CY09) (assay: PBM E-score (8-mer binding enrichment) (E-score (-0.5 to 0.5)); higher = stronger / more preferred TF binding; most listed sequences are background and not binding sites). Conditions: protein concentration: 200 nM; construct: GST-full length.
T1 sequence: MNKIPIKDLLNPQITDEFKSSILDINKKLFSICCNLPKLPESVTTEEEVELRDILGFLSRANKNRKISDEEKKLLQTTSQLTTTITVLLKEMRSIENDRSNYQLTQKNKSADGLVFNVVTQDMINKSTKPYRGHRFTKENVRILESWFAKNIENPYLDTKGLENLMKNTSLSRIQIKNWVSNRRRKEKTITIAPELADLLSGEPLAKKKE
Method: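 Universal 'all 10-mer' protein binding microarrays (Agilent AMADID 015681) probed with GST-tagged S. cerevisiae TFs (full-length or DBD) made by in vitro transcription/translation (PURExpress), about 100-200 nM. Bound TF was detected with fluorescent anti-GST. Each ungapped 8-mer (which stands for itself and its reverse complement) is scored by the PBM enrichment score (E-score), a modified Wilcoxon-Mann-Whitney statistic from -0.5 to +0.5, computed with the Universal PBM Analysis Suite. Scale: above 0.35 generally sequence-specific binding.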

Row | Sequence | PBM E-score
1 | ACCGCAGA | -0.216
2 | CGTTGACC | 0.1
3 | GAAGCATC | -0.324
4 | CAGCTGGC | -0.157
5 | CCAATGGA | -0.202
6 | ACCCCAGG | -0.274
7 | CTTAACGC | 0.278
8 | AGTCAGAT | -0.00404
9 | AACCAGCT | 0.164
10 | CTGGAACC | -0.109
11 | AGGCTATG | -0.0502
12 | CGTGATTA | 0.253
13 | CCAGGCGC | -0.162
14 | GAGTTAAC | 0.234
15 | ACGACGAC | -0.179
16 | GCTCGTCC | -0.111
17 | GAACATCA | -0.0481
18 | CAGTGCGC | -0.267
19 | ATGTGTAA | 0.452
20 | CTTGACAC | 0.195
21 | ATCCGGCC | -0.269
22 | GCCCTATA | -0.212
23 | TAAAAAGA | 0.0525
24 | ACGTGCGC | 0.209
25 | TTCCCAAA | 0.103

Row | Sequence | PBM E-score
26 | CAACGCCA | 0.0571
27 | CATGCTGA | 0.14
28 | ATACGAGC | 0.195
29 | GTTCTGTA | 0.169
30 | CATACTGG | 0.0171
31 | ACTTCAGG | -0.0344
32 | AGAACATA | 0.248
33 | ATCATACG | 0.203
34 | AAGGAACG | -0.0584
35 | AACACCTG | 0.193
36 | ATACTGAA | 0.0957
37 | AGCCGCCG | -0.309
38 | GGCCTAAC | 0.0427
39 | CAACTGCC | -0.0614
40 | GCTAGGGA | -0.305
41 | ATCCACCC | -0.258
42 | ACCTGGCG | 0.0619
43 | TCAGTGAA | -0.0967
44 | CCATGATC | -0.128
45 | AGGGAACG | -0.224
46 | AACCTATT | -0.12
47 | ACTGATTG | -0.0737
48 | CCCTAAGA | -0.201
49 | CCAAGACC | -0.287
50 | CTTTTTCA | 0.0426

Row | Sequence | PBM E-score
51 | AGATATAA | 0.127
52 | ATCGTTCA | 0.0127
53 | CTAAAGAC | 0.051
54 | AGCTATAA | 0.0724
55 | CGGGGAAG | -0.189
56 | ACGTGAAG | 0.117
57 | ATGAGCAC | -0.067
58 | CCACGTAC | 0.0262
59 | CAGCGAGA | -0.0719
60 | AAAAATCC | -0.17
61 | GATCCAGC | -0.303
62 | AAAGAAAC | 0.211
63 | ATTCTGGC | -0.13
64 | CTCAAATC | -0.153
65 | CCACGGCC | -0.281
66 | AACCAAAG | 0.105
67 | ACTGGCCC | -0.194
68 | AATGTGGG | -0.134
69 | CCGGGGTA | -0.17
70 | CCAGGGGG | -0.372
71 | GCGAACAA | 0.193
72 | GCGTCTCA | -0.153
73 | AACAGGGC | 0.126
74 | AAGAGACA | -0.0706
75 | ACCGCCCA | -0.1

Row | Sequence | PBM E-score
76 | ACCTACTA | 0.081
77 | TTACCGAA | 0.0996
78 | ATAGGATC | -0.15
79 | ATTATGCG | 0.0664
80 | TGATATCA | 0.114
81 | GCTTACCA | 0.121
82 | CTATCACA | 0.063
83 | ACTGTGAG | -0.0534
84 | AGCATTCC | -0.0993
85 | CAAACCTA | 0.123
86 | CAACATAG | 0.286
87 | CTTTTTTA | 0.143
88 | AATCAGTA | 0.14
89 | GCGATGTA | 0.366
90 | AATGCTTC | 0.043
91 | ACCTCTGC | -0.204
92 | GGACGTGA | -0.136
93 | AGTCTGTG | -0.0941
94 | AGTACCAG | -0.00021
95 | GAGTAAAC | 0.186
96 | ATTACGTA | 0.431
97 | AGCTCGGG | -0.135
98 | GTTAGAAC | 0.15
99 | TCAACCAA | 0.124
100 | AATGAGAC | -0.281

Row | Sequence | PBM E-score
101 | TGATGTAA | 0.389
102 | ACCTTGAT | -0.0635
103 | GTGGTTCA | 0.0692
104 | CACTACAC | 0.394
105 | TAACCGGA | -0.0408
106 | CTTTGGCC | -0.0664
107 | CGTTTGGA | -0.163
108 | CGGGCATA | -0.237
109 | AAGCTGCG | -0.00352
110 | GGTGTCCA | -0.143
111 | ACTGAAAG | -0.00652
112 | CCAGCGTA | 0.0228
113 | CCCTTGGA | -0.119
114 | GCGTTTCA | 0.07
115 | CGTTACAC | 0.385
116 | ATTACACC | 0.382
117 | CTACGCAC | 0.17
118 | CTACTTAC | 0.0584
119 | CATCTGAC | -0.162
120 | GGTGGGAC | -0.192
121 | AACAATTA | 0.204
122 | GCCGAACC | -0.38
123 | AATTCTGT | -0.0762
124 | AACTATCC | -0.331
125 | AGCTATGC | -0.036

Row | Sequence | PBM E-score
126 | CAATGGCA | -0.0583
127 | CACATAGC | 0.143
128 | CCTACCCG | -0.051
129 | GAGTAGTA | 0.0394
130 | CCAGTACC | -0.192
131 | AGCCGGGG | -0.3
132 | ATGGCGCA | -0.0727
133 | CGATCGAA | -0.113
134 | AATCCGCG | 0.077
135 | ACTATTTA | 0.165
136 | TATTTGCA | 0.233
137 | TGTCCACA | 0.119
138 | GGAGCCGA | -0.213
139 | CCCAGTTC | 0.0115
140 | AAGTATTG | 0.0978
141 | GTGTTTGA | 0.307
142 | ACACTGAT | -0.098
143 | AGTATTCC | 0.0138
144 | GCTCCGAA | -0.111
145 | CAGCACTA | -0.0651
146 | AATCTTCA | 0.0756
147 | CGACCCAC | -0.132
148 | AGGAAGCC | -0.247
149 | GAACGGAC | -0.135
150 | AAGCATTG | 0.0469

Row | Sequence | PBM E-score
151 | AACAAGTG | 0.276
152 | AAGGGTAC | -0.00026
153 | AGCCTTAA | -0.107
154 | AGGAGATC | -0.167
155 | GTGGAGCA | -0.0957
156 | CCGAGGTA | -0.101
157 | GGCATCCA | -0.215
158 | GAATTCAA | 0.0639
159 | GGTTAGCA | -0.0838
160 | AAAAATGC | -0.0342
161 | GAAGCTTC | -0.459
162 | CTTGCCGC | -0.175
163 | CTATTCGA | -0.0276
164 | AGATGCAC | -0.126
165 | CAAAGTCA | -0.0618
166 | CTAATTAA | 0.178
167 | AACAATAT | 0.341
168 | ACAAACCC | 0.0827
169 | CACCGGAG | -0.345
170 | AGGGGAGC | -0.33
171 | GGACGGCC | -0.251
172 | TACGCCCA | -0.05
173 | CATCCTTC | 0.0706
174 | CGGTATAG | -0.232
175 | CTTAATGC | -0.0376

Row | Sequence | PBM E-score
176 | AAACAATT | 0.0562
177 | AAACGGTG | 0.0442
178 | CATACAAC | 0.093
179 | CCCCTCAG | -0.321
180 | AACCTGGA | -0.0997
181 | CTCCTACA | 0.114
182 | CCGGATTC | -0.0975
183 | AACCACTT | -0.037
184 | AGCTTCCC | -0.335
185 | TGCTACAA | 0.218
186 | AAGTCTAA | 0.0293
187 | CAATTTAG | 0.0321
188 | TCTCATAA | -0.0311
189 | TGTAGAAA | 0.429
190 | TAGGTAAA | 0.189
191 | CGGGTCGC | 0.0563
192 | ATGCTCAC | -0.0507
193 | CCTTCGCC | -0.202
194 | ACATCTCC | 0.036
195 | ATTCGCGG | -0.0108
196 | ATGTCCCA | -0.311
197 | GGATGCTA | -0.152
198 | ATTCCAAG | -0.078
199 | TAAGTGCA | 0.0149
200 | ATGTGGTC | -0.0423

Row | Sequence | PBM E-score
201 | AATCATAA | 0.0911
202 | CCGCTACC | -0.158
203 | GATAGGGA | -0.236
204 | ACCCAAAT | 0.12
205 | AGACACTA | 0.0154
206 | GATAGATC | -0.0828
207 | CCAGTTGA | -0.069
208 | GAGAAAGC | -0.109
209 | AACCACGT | 0.152
210 | ACTCCTGA | -0.199
211 | TACCTGCA | 0.0424
212 | CACTCGGA | -0.0428
213 | ACCCCGCT | -0.312
214 | GCTGATTA | 0.248
215 | AGAAACGG | 0.0693
216 | GACGCGTA | 0.383
217 | GGTAACAA | 0.263
218 | CATACTAC | 0.173
219 | AGTACACG | 0.437
